This is one part of the list.
Key:
Test in all cases: glycan array binding signal (z-score within array); higher = stronger binding
Conditions in all cases: glycan notation: IUPAC condensed, linker removed
Fuc(a1-2)Gal = biological target: Fuc(a1-2)Gal
In short: (§1)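 Glycan array data were curated from 3228 arrays in the Consortium for Functional Glycomics database and kept only where the protein sequence was available. Glycan names were converted to IUPAC-condensed notation, and columns mapping to the same glycan were averaged. The binding signal is a within-array Z-score, averaged across arrays of the same protein sequence at different concentrations or buffers and across linkers. Negative Z-scores can be read as non-binding.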

Fuc(a1-2)Gal(b1-3)GalNAc = biological target: Fuc(a1-2)Gal(b1-3)GalNAc
In short: as §1

[1] = biological target: Fuc(a1-2)Gal(b1-3)GalNAc(a1-3)[Fuc(a1-2)]Gal(b1-4)Glc
In short: as §1

[2] = biological target: Fuc(a1-2)Gal(b1-3)GalNAc(a1-3)[Fuc(a1-2)]Gal(b1-4)GlcNAc
In short: as §1

[3] = biological target: Fuc(a1-2)Gal(b1-3)GalNAc(b1-3)Gal
In short: as §1

[4] = biological target: Fuc(a1-2)Gal(b1-3)GalNAc(b1-3)Gal(a1-4)Gal(b1-4)Glc
In short: as §1

[5] = biological target: Fuc(a1-2)Gal(b1-3)GalNAc(b1-4)[Neu5Ac(a2-3)]Gal(b1-4)Glc
In short: as §1

Fuc(a1-2)Gal(b1-3)GlcNAc = biological target: Fuc(a1-2)Gal(b1-3)GlcNAc
In short: as §1

[6] = biological target: Fuc(a1-2)Gal(b1-3)GlcNAc(b1-2)Man(a1-3)[Fuc(a1-2)Gal(b1-3)GlcNAc(b1-2)Man(a1-6)]Man(b1-4)GlcNAc(b1-4)GlcNAc
In short: as §1

[7] = biological target: Fuc(a1-2)Gal(b1-3)GlcNAc(b1-2)Man(a1-3)[Fuc(a1-2)Gal(b1-3)GlcNAc(b1-2)Man(a1-6)]Man(b1-4)GlcNAc(b1-4)[Fuc(a1-6)]GlcNAc
In short: as §1

[8] = biological target: Fuc(a1-2)Gal(b1-3)GlcNAc(b1-3)Gal(b1-4)Glc
In short: as §1

[9] = biological target: Fuc(a1-2)Gal(b1-3)GlcNAc(b1-3)GalNAc
In short: as §1

[10] = biological target: Fuc(a1-2)Gal(b1-3)GlcNAc(b1-3)[Fuc(a1-2)Gal(b1-3)GlcNAc(b1-6)]GalNAc
In short: as §1

[11] = biological target: Fuc(a1-2)Gal(b1-3)GlcNAc(b1-3)[Gal(b1-4)GlcNAc(b1-6)]Gal(b1-4)Glc
In short: as §1

[12] = biological target: Fuc(a1-2)Gal(b1-3)GlcNAc(b1-3)[Neu5Ac(a2-6)Gal(b1-4)GlcNAc(b1-6)]Gal(b1-4)Glc
In short: as §1

[13] = biological target: Fuc(a1-2)Gal(b1-3)GlcNAc6S
In short: as §1

[14] = biological target: Fuc(a1-2)Gal(b1-3)[Fuc(a1-4)]GlcNAc
In short: as §1

[15] = biological target: Fuc(a1-2)Gal(b1-3)[Fuc(a1-4)]GlcNAc(b1-2)Man(a1-3)[Fuc(a1-2)Gal(b1-3)[Fuc(a1-4)]GlcNAc(b1-2)Man(a1-3)]Man(b1-4)GlcNAc(b1-4)GlcNAc
In short: as §1

[16] = biological target: Fuc(a1-2)Gal(b1-3)[Fuc(a1-4)]GlcNAc(b1-2)Man(a1-3)[Fuc(a1-2)Gal(b1-3)[Fuc(a1-4)]GlcNAc(b1-2)Man(a1-6)]Man(b1-4)GlcNAc(b1-4)[Fuc(a1-6)]GlcNAc(b1-4)[Fuc(a1-6)]GlcNAc
In short: as §1

[17] = biological target: Fuc(a1-2)Gal(b1-3)[Fuc(a1-4)]GlcNAc(b1-3)[Fuc(a1-3)[Gal(b1-4)]GlcNAc(b1-6)]Gal(b1-4)Glc
In short: as §1

[18] = biological target: Fuc(a1-2)Gal(b1-3)[Fuc(a1-4)]GlcNAc(b1-3)[Gal(b1-4)GlcNAc(b1-6)]Gal(b1-4)Glc
In short: as §1

[19] = biological target: Fuc(a1-2)Gal(b1-4)Fuc(a1-3)]GlcNAc(b1-2)Man(a1-3)[Fuc(a1-2)Gal(b1-4)[Fuc(a1-3)]GlcNAc(b1-2)Man(a1-6)]Man(b1-4)GlcNAc(b1-4)GlcNAc
In short: as §1

Fuc(a1-2)Gal(b1-4)Glc = biological target: Fuc(a1-2)Gal(b1-4)Glc
In short: as §1

Fuc(a1-2)Gal(b1-4)Glc6S = biological target: Fuc(a1-2)Gal(b1-4)Glc6S
In short: as §1

Fuc(a1-2)Gal(b1-4)GlcNAc = biological target: Fuc(a1-2)Gal(b1-4)GlcNAc
In short: as §1

[20] = biological target: Fuc(a1-2)Gal(b1-4)GlcNAc(b1-2)Man
In short: as §1

[21] = biological target: Fuc(a1-2)Gal(b1-4)GlcNAc(b1-2)Man(a1-3)[Fuc(a1-2)Gal(b1-4)GlcNAc(b1-2)Man(a1-6)]Man(b1-4)GlcNAc(b1-4)GlcNAc
In short: as §1

[22] = biological target: Fuc(a1-2)Gal(b1-4)GlcNAc(b1-2)Man(a1-3)[Fuc(a1-2)Gal(b1-4)GlcNAc(b1-2)Man(a1-6)]Man(b1-4)GlcNAc(b1-4)[Fuc(a1-6)]GlcNAc
In short: as §1

[23] = biological target: Fuc(a1-2)Gal(b1-4)GlcNAc(b1-2)[Fuc(a1-2)Gal(b1-4)GlcNAc(b1-4)]Man(a1-3)[Fuc(a1-2)Gal(b1-4)GlcNAc(b1-2)Man(a1-6)]Man(b1-4)GlcNAc(b1-4)GlcNAc
In short: as §1

[24] = biological target: Fuc(a1-2)Gal(b1-4)GlcNAc(b1-3)Gal(b1-4)GlcNAc
In short: as §1

B1: a L Fucosidase (Streptosporangium roseum), D2B1P1_STRRD (protein)
chain: MRRKLLLVPAVGLLVIGSIFATQPVASADTPPVYEPTVESLNSHPVPQWFNDDKFGIFIHWGAYSVPAWGPRGSYAEWYGNYMNAGGSATNAHHKATYGQDFNYDAFLQQWKAEKFDPADWVKLFKDAGAKYFVLTSKHHEGMALWDSKSSGRDSVDLGPGRDLAKELFDAARKDEAKLKAGFYYSLYEWYNPAYTGRPATNPYTGAEIPYTGAPGGGDYVKDYMLPQMRELIDGYDPDIIWCDGQWEKPASYWNTAGVIADYYNKALNSGKEVAVANRCKIQSGNLDSPELDFQTPEYTVKPDIDPVKWESSRGIAHSYGYNQNEPEEDHLTSDQLVDSLVDIVSKNGNLLLDIGPKADGTIPEIQRQRLLDIGAWLKANGEAIYGTTYWNRAEEKGGPDDVRYTAKDATLYATALKWPGEQLTLGADLPVDHSTRITMLGSGARLSWSRDEQGRVVVNTPQEAGKHAYVFKIETPGVRSLLRTSSSLAKEIAPGRTISGELTVTNPGKRHTPATKLSLTVPQGWTATLGAPRVRPLGPGESVKVPISVSAPEGVAPAPYTLGLYQRTGRMGTTTALPLTVNRPNLSLGKPATQKSTGYDAPASRAVDGNTGGDWSAGSTTHTAEPEKQAWWQVDLGASARLDSVDVWNRLDCCADRLKDFWVMASDQPFTTDDLDQARTAPGVTAVHVGEQAGSPSKVKLPEGTRGRYVRIQLASPSNPLSLAEVQVRGSMARPNLSLGKPATQKSTGYDAPASRAVDGNTGGDWSAGSTTHTAEPEKQAWWQVDLGASARLDSVDVWNRLDCCADRLKDFWVMASDQPFTTDDLDQARTAPGVTAVHVGEQAGSPSKVKLPEGTRGRYVRIQLASPSNPLSLAEVQVRLEHHHHHHS
glycan array binding signal (z-score) (Fuc(a1-2)Gal): 4.93 | glycan array binding signal (z-score) (Fuc(a1-2)Gal(b1-3)GalNAc): -0.499 | glycan array binding signal (z-score) [1]: 0.337 | glycan array binding signal (z-score) [2]: -0.191 | glycan array binding signal (z-score) [3]: 0.024 | glycan array binding signal (z-score) [4]: 0.066 | glycan array binding signal (z-score) [5]: -0.366 | glycan array binding signal (z-score) (Fuc(a1-2)Gal(b1-3)GlcNAc): -0.423 | glycan array binding signal (z-score) [6]: 0.052 | glycan array binding signal (z-score) [7]: 0.217 | glycan array binding signal (z-score) [8]: -0.268 | glycan array binding signal (z-score) [9]: 0.064 | glycan array binding signal (z-score) [10]: -0.371 | glycan array binding signal (z-score) [11]: -0.173 | glycan array binding signal (z-score) [12]: -0.56 | glycan array binding signal (z-score) [13]: -0.381 | glycan array binding signal (z-score) [14]: -0.463 | glycan array binding signal (z-score) [15]: 1.01 | glycan array binding signal (z-score) [16]: -0.039 | glycan array binding signal (z-score) [17]: -0.305 | glycan array binding signal (z-score) [18]: -0.388 | glycan array binding signal (z-score) [19]: 0.398 | glycan array binding signal (z-score) (Fuc(a1-2)Gal(b1-4)Glc): 0.656 | glycan array binding signal (z-score) (Fuc(a1-2)Gal(b1-4)Glc6S): 2.06 | glycan array binding signal (z-score) (Fuc(a1-2)Gal(b1-4)GlcNAc): 1.83 | glycan array binding signal (z-score) [20]: 2.47 | glycan array binding signal (z-score) [21]: 0.014 | glycan array binding signal (z-score) [22]: 0.372 | glycan array binding signal (z-score) [23]: 0.229 | glycan array binding signal (z-score) [24]: 0.709

From the supplement of paper PMC8728848
